In all, about 420,000 compounds went through this assay and about 50,000 (12%) were called active. This list was built around the results that the source calls inconclusive (neither active nor inactive); the mix of calls is not that of the screen. The call rests on the fitted dose curve; in most records, active means well fitted inhibition curve with a large enough effect; inconclusive means small, poorly fitted or top-dose-only effect; inactive means flat fitted curve, though single readings scatter. No potency is given beside an inconclusive call; the fits are too rough.
Assay: qHTS for Inhibitors of human tyrosyl-DNA phosphodiesterase 1 (TDP1): qHTS in cells in presence of CPT; further: nearly all actives have a fitted effect of over 55% in size
Details: chicken DT40 Tdp1-/-;hTDP1 cells + 20 nM CPT, ATP luminescence, 48 h; activity change, negative = growth inhibition: at 46.2 µM (top of the series)
Summary of the method: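 Chicken DT40 Tdp1-/- cells stably complemented with human TDP1 were seeded at 400 cells/well in medium containing 20 nM camptothecin, exposed to pin-transferred compounds, and grown at 37 °C for at least 48 hr. Viability was read as ATP luminescence.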
On the % scale 0 is the no-effect control and ±100 the full control effect; potency means the concentration at half of the fitted maximal effect; tags describe the fitted curve by direction and shape.

Structure (SMILES)	activity change, negative = growth inhibition	Potency
O=C(CC1CC1)Nc1ccc2c(c1)[C@H]1C[C@H](CC(=O)N3CCc4ccccc4C3)O[C@@H](CO)[C@H]1O2	inactive: -19.7%	
CCN(CC(=O)Nc1c(F)cccc1F)C(=O)C(C)SCc1nc2sc(C)c(C)c2c(=O)[nH]1 (centres undefined)	inconclusive: -32.3% [inhibitor]	
CC(C)Nc1ncnc2c1ncn2[C@H]1CN(CCN2CCOCC2)C[C@@H](CO)O1	inactive: 10.3%	
Cc1nc(NCc2cccc3c2OCO3)sc1-c1ccn(CC2CCCN(C)C2)n1 (centres undefined)	inactive: -4.73% [at 9.04 µM]	
CC(C)(C)OC(=O)NCCCCCNC(=O)c1nc[nH]c1C(=O)NCc1ccccc1		inconclusive [inhibitor, single point]
NC[C@H]1O[C@H](O[C@H]2[C@H](O)[C@@H](O[C@H]3O[C@H](CO)[C@@H](O)[C@H](N)[C@H]3O)[C@H](N)C[C@@H]2N)[C@H](N)[C@@H](O)[C@@H]1O		inconclusive [inhibitor, full curve, poor fit]
COc1ccc(C(=O)NCc2ccc(N3CCN(C(=O)OC(C)(C)C)CC3)cc2)cc1		inconclusive [inhibitor, single point]
Cc1ccc(NC(=O)CSc2ncc(-c3ccccc3)[nH]2)cc1		inconclusive [inhibitor, single point]
COc1ccc(NS(=O)(=O)c2cccc(C(=O)NNC(=O)c3ccccc3O)c2)cc1		inconclusive [inhibitor, single point]
Cc1cccc(NC(=O)CSc2nncn2N)c1C	inactive: 8.03%	
COC(=O)c1c(-c2ccccc2)nn(-c2ccccc2)c1C(=O)OC		inconclusive [inhibitor, single point]
CCCCN1CC2=C(C1=O)C(c1ccc(O)cc1)NC(=O)N2C (centres undefined)	inactive: 2.39%	
CCOC(=O)C1=CN(Cc2ccco2)S(=O)(=O)N(C)C1c1ccccc1 (centres undefined)		inconclusive [inhibitor, single point]
O=C(Nc1nccs1)c1sc2ccccc2c1Cl		inconclusive [inhibitor, single point]
COc1cccc(NC(=O)CSc2nnc(-c3cccc(OC)c3)o2)c1		inconclusive [inhibitor, single point]
COc1ccc(C(c2sc3nc(C)nn3c2O)N2CCN(Cc3ccccc3)CC2)cc1OC (centres undefined)	inactive: -6.16%	
O=[N+]([O-])c1cccc(-c2cn3nc(-c4ccccc4)c(-c4ccccc4)nc3n2)c1		inconclusive [inhibitor, single point]
CCCCNC(=O)CSc1nc2nc(C)c(Cc3c(F)cccc3Cl)c(C)n2n1		inconclusive [inhibitor, single point]
CCC(=O)N1CCc2cc(CNC(=O)c3ccccc3C)ccc21	inconclusive: -31.5% [inhibitor]	
CC(=O)/C=C/c1ccc(C)o1		active: 16.4 µM
COc1ccccc1NS(=O)(=O)c1ccc(NC(=O)c2ccccn2)cc1		inconclusive [inhibitor, partial curve]
O=C(Nc1cccc(Cl)c1N1CCCC1)c1cccc(-c2cc3ccccc3oc2=O)c1		active: 18.4 µM
C/C(N)=C(/C#N)C(=O)CSc1nc2ccccc2n1CC(C)C	inactive: 10.8%	

Structure (SMILES)	activity change, negative = growth inhibition	Potency
Cc1ccc2sc(-c3ccc(N)cc3)nc2c1		inconclusive [inhibitor, single point]
C[C@H]1CN([C@@H](C)CO)C(=O)c2cccc(NC(=O)c3ccc(-c4nccs4)cc3)c2O[C@@H]1CN(C)C(=O)NC1CCCCC1		inconclusive [inhibitor, single point]
Cc1ccc(NC(=O)CN2C(=O)c3ccccc3S2(=O)=O)cc1C	inactive: 2.08%	
COc1ccc(-c2nc(CSCC(=O)N3CCc4ccccc4C3)c(C)o2)cc1OC		inconclusive [inhibitor, single point]
CCc1ccc(-n2c(=O)c3sc4ccccc4c3n(CC(=O)N(CC)Cc3ccccc3)c2=O)cc1		active: 18.4 µM
Cc1onc(-c2ccccc2Cl)c1C(=O)NCC(=O)O	inactive: -10.5%	
Cc1ccc(Cl)cc1N1CCN(C(=O)c2cnn(C)c2C2CCN(C(=O)OC(C)(C)C)CC2)CC1		active: 6.51 µM
Cc1ccc(-c2nnc(Nc3ccccc3O)c3ccccc23)cc1		inconclusive [inhibitor, single point]
CC(C)N(C(=O)[C@H]1C[C@H](CC(=O)NCCN2CCOCC2)C(=O)N2CCc3c([nH]c4ccc(Cl)cc34)[C@]12C)C(C)C		inconclusive [inhibitor, single point]
CCCCCn1c(-c2ccco2)nc2nc3ccccc3nc21		inconclusive [inhibitor, single point]
CCCc1cc(=O)oc2c(C)c(OCC(=O)NCc3ccccn3)ccc12	inactive: -14.6%	
O=C(C1CCC(Cn2c(=O)c3sccc3n(Cc3ccccc3)c2=O)CC1)N1CCOCC1 (centres undefined)		inconclusive [inhibitor, single point]
COc1ccc(OC)c(NC(=O)C2(C)CCN2Cc2cccc(OC)c2F)c1 (centres undefined)		inconclusive [inhibitor, single point]
OCCC1CN(CCCc2ccccc2)CCN1Cc1ccc(F)cc1 (centres undefined)	inactive: 0.311%	
CN(Cc1ccco1)C(=O)CSc1nn2c(=O)c(C(C)(C)C)nnc2s1	inactive: 9.42%	
CCOc1ccc(-c2cnc(NCc3cccc4ccccc34)n2CCOC)cc1		inconclusive [inhibitor, single point]
Cc1cc(C)n(-c2cc(N3CCOCC3)nc(-c3ccccc3)n2)n1	inconclusive: -33.9% [inhibitor]	
Cn1c(=O)n(Cc2ccc(Cl)cc2)c(=O)c2c1nc1n2CCN1Cc1ccco1		inconclusive [inhibitor, single point]
COc1ccc(C(=O)Nc2ncccc2C)cc1S(=O)(=O)N1CCCc2ccccc21		inconclusive [inhibitor, single point]
COc1ccccc1NC(=O)c1ccc(COc2ccc3c(c2)CCC3)cc1	inactive: -5.25%	
Cc1cc2cc(CNC(=O)c3ccc(Br)o3)ccc2[nH]1		inconclusive [inhibitor, single point]
C=C1[C@H](CO)[C@@H](O)C[C@@H]1n1cnc2c(=O)[nH]c(N)nc21		active: 0.0084 µM
Cc1ccc(/C(N)=N/OC(=O)COc2ccccc2Cl)cc1	inactive: -20.3%	

Structure (SMILES)	activity change, negative = growth inhibition	Potency
COC(=O)[C@@]1(Sc2ccc(C)cc2)CC(=O)N(C(=O)/C=C/c2ccccc2)[C@@H]1c1ccccc1		inconclusive [inhibitor, single point]
O=C(Nc1ccccc1F)c1ccc(Cn2nc(N3CCN(c4ccccc4)CC3)ccc2=O)o1		active: 23.1 µM
Cn1nnnc1SCC(=O)NCc1cc([N+](=O)[O-])ccc1O	inactive: -0.713%	
Cc1cc(Cl)c2c(c1)[C@]1(C(=O)N2)[C@@H]2C(=O)N(Cc3ccccc3)C(=O)[C@@H]2[C@@H]2CCCN21		inconclusive [inhibitor, single point]
O=S1(=O)c2ccc(Br)cc2N2CC[C@H](C2)N1Cc1ccc(Cl)cc1		active: 1.3 µM
O=C(NCc1cccnc1)c1ccc(Cn2c(=S)[nH]c3ccc(Br)cc3c2=O)cc1		inconclusive [inhibitor, single point]
O=[N+]([O-])c1ccc(/C=N/Nc2nc(N3CCCC3)nc(N3CCCC3)n2)o1		active: 23.1 µM
C=C(C)COc1ccc(-c2ncncc2Oc2ccc(OC)cc2)c(O)c1		inconclusive [inhibitor, single point]
O=C(C[C@@H]1C[C@@H]2c3cc(NS(=O)(=O)c4ccc(F)cc4)ccc3O[C@@H]2[C@H](CO)O1)NCc1ccc(Oc2ccccc2)cc1		inconclusive [inhibitor, single point]
O=C(CCC(=O)N1CC2CCCN2c2ccccc21)NCc1ccc(F)cc1 (centres undefined)		inconclusive [inhibitor, partial curve]
CCOc1ccc(OCCOC(=O)CN(C)S(=O)(=O)c2ccc(NC(C)=O)cc2)cc1	inactive: -3.02%	
COc1cc2c(NC3CCN(C)CC3)nc(N3CCCCC3)nc2cc1OCCCN(C)C		active: 3.98 µM
Cc1cc(C)c(NC(=O)CN2C(=O)c3cccnc3Sc3ccccc32)c(C)c1		inconclusive [inhibitor, single point]
COc1ccc(OC)c(NC(=O)Nc2ccccc2C)c1	inactive: 0.27%	
O=C(NCc1ccco1)c1cc2nc(-c3cccs3)cc(C(F)(F)F)n2n1		inconclusive [inhibitor, single point]
CCc1cc(C(=O)Nc2c(C)nn(Cc3ccccc3Cl)c2C)no1		inconclusive [inhibitor, partial curve]
CCNC(=O)C1(C)CCCN1Cc1cccc(C(F)(F)F)c1 (centres undefined)		active: 18.4 µM
CCOC(=O)C1=C(CN2CCOCC2)NC(=O)NC1c1cc(C)ccc1C (centres undefined)	inactive: -21.4%	
COCCCn1c(=S)[nH]c2c(sc3ccccc32)c1=O	inactive: 0.757%	
O=C([C@H]1O[C@@H](n2ccc(=O)[nH]c2=O)[C@H](O)[C@@H]1O)N1CCC(F)(F)CC1	inactive: -0.374%	
CCCN(CCC)CCCNC(=O)CN1C(=O)CSc2ccc(S(=O)(=O)N3CCOCC3)cc21	inactive: -1.02%	
N#Cc1nc(-c2ccco2)oc1N1CCN(C(c2ccccc2)c2ccccc2)CC1		inconclusive [inhibitor, single point]
CCc1ccc(OCCOCC(O)CN2CCN(Cc3ccc(Cl)cc3)CC2)cc1 (centres undefined)		active: 18.4 µM
